From PubChem BioAssay AID902 (National Center for Advancing Translational Sciences (NCATS), 2007)
Among all 130,000 compounds or so, about 1,900 (1.5%) were called active. Inconclusive results, whose numbers are uncertain, are shown with a selection of clear calls. Calls follow the shape of the dose curve; as a rule, active = well fitted cell-killing curve with a large enough effect; inconclusive = small, poorly fitted or top-dose-only effect; inactive = no such curve, though single readings can be large or run the other way. A potency beside an inconclusive call is a rough fit, not a confirmed value.
Potency is read from the fitted curve at half-maximal effect; tags tell the direction and shape of the fitted curve.

Test: qHTS Screen for Compounds that Selectively Target Cancer Cells with p53 Mutations: Cytotoxicity of p53ts Cells at the Nonpermissive Temperature; also: nearly all actives have a fitted effect of over 55% in size
Conditions: H1299-p53A138V viability at 39C, ATP luminescence, 24 h; series mostly up to 46.1 µM
For O=C(O)CC[C@@H](NC(=O)c1ccccc1C(=O)O)C(=O)O, the Potency was “inactive”. In the case of Cc1ccc(-c2cc(-c3ccccc3)no2)c(O)c1, the Potency is reported as active: 5.01 µM. In the case of Cc1cc(-c2ccccc2)nc(N2CCN(c3ccccn3)CC2)n1, the Potency is reported as inconclusive: 20 µM [cytotoxic, single point]. With Cc1cc(NC(=O)c2cccn2-c2nnc(N3CCCCC3)s2)ccc1Br the Potency was inconclusive: 6.31 µM [cytotoxic, full curve, poor fit]. In the case of Cc1cc(Cl)ccc1NC(=O)CCCn1nc(C)c2c(C)n(-c3ccccc3)nc2c1=O, the Potency is reported as inconclusive: 15.8 µM [cytotoxic, single point]. In the case of O=C(Nc1ccccc1)NC1(C(=O)NCc2ccc3c(c2)OCO3)CCCCC1, the Potency is reported as “inactive”. For Cc1ccc(-c2nnc(N3CCOCC3)c3ccccc23)cc1S(=O)(=O)NCC1CCCO1 (stereo not given), the Potency was “inactive”. In the case of COc1ccc(-n2c(C)cc(C(=O)Cn3c(NCCO)nc4ccccc43)c2C)cc1, the Potency is reported as inconclusive: 31.6 µM [cytotoxic, single point]. In the case of Cc1cc(C)cc(NC(=O)CSc2nnc(-c3ccccc3C)o2)c1, the Potency is reported as inconclusive: 10 µM [cytotoxic, partial curve]. With Cc1ccc(CNC(=O)c2ccc(N3CCCC3)c(NC(=O)Nc3ccc(C)cc3)c2)cc1 the Potency was “inactive”. In the case of Cc1ccnc(NC(=O)Nc2ccc3c(c2)N(C)C(=O)CS3)c1, the Potency is reported as “inactive”. For CCc1c(C)c2ccc(O)c(CN3CCN(c4cc(Cl)ccc4C)CC3)c2oc1=O, the Potency was “inactive”. With CCCCOc1ccccc1C1CC(=O)Nc2ccc3ccccc3c21 (stereo not given) the Potency was inconclusive: 20 µM [cytotoxic, single point]. In the case of O=C(c1ccco1)n1c(=S)nc2ccccn21, the Potency is reported as “inactive”. In the case of CC(=O)Nc1cccc(-c2nc(-c3ccccc3)no2)c1, the Potency is reported as inconclusive: 12.6 µM [cytotoxic, partial curve, poor fit]. In the case of CCCCN(CC)C(=O)CSc1nc2n[nH]c(C)c2c(=N)n1-c1ccc(CC)cc1, the Potency is reported as “inactive”. In the case of O=S(=O)(c1ccc(Cl)cc1)c1nnn2c1nc(NC1CCCC1)c1sccc12, the Potency is reported as inconclusive: 1.58 µM [cytotoxic, full curve, poor fit]. In the case of Nc1c(C(=O)Nc2ccccc2Br)sc2nc(-c3cccs3)ccc12, the Potency is reported as inconclusive: 31.6 µM [cytotoxic, single point]. With CCN(CC)C(=O)c1cc(-c2ccc(Br)cc2)on1 the Potency was inconclusive: 20 µM [cytotoxic, single point]. With CN(C)c1ccc(C(=O)OCC(=O)c2cccs2)cc1 the Potency was inconclusive: 10 µM [cytotoxic, partial curve]. In the case of COc1ccc(CNC(=O)Cn2c(=O)oc3cc(S(=O)(=O)NCc4ccccc4)ccc32)cc1, the Potency is reported as inconclusive: 10 µM [cytotoxic, partial curve, poor fit]. In the case of COc1ccccc1-n1cnnc1SCC(=O)c1cc(C)n(Cc2cccs2)c1C, the Potency is reported as inconclusive: 5.01 µM [cytotoxic, full curve]. For Cc1ccccc1CS(=O)(=O)Cc1ccc(C(=O)NCCc2ccc(Cl)cc2)o1, the Potency was inconclusive: 25.1 µM [cytotoxic, single point]. For CC(C)COC(=O)n1c(SCC(=O)N(C)C)nc2ccccc21, the Potency was “inactive”. In the case of Fc1ccc2[nH]c3c(N4CCSCC4)ncnc3c2c1, the Potency is reported as inconclusive: 15.8 µM [cytotoxic, single point]. With Cc1cccc2c1-c1sc(C(=O)NCCCN3CCN(c4ccccc4F)CC3)cc1CO2 the Potency was active: 15.8 µM. With CCOc1ccc(CN2CCN(Cc3ccc4c(c3)c3ccccc3n4CC)CC2)cc1 the Potency was inconclusive: 15.8 µM [cytotoxic, single point]. For CCc1nn(CC(=O)NCc2ccc(C)cc2)c(=O)c2cc3occc3n12, the Potency was “inactive”. For CCN(c1ccccc1C)S(=O)(=O)c1nnc(NC(=O)c2ccccc2C)s1, the Potency was inconclusive: 20 µM [cytotoxic, single point]. In the case of COc1cccc(-c2cc(C(=O)N3CCCc4ccccc43)no2)c1, the Potency is reported as inconclusive: 12.6 µM [cytotoxic, partial curve]. In the case of Cc1cc(NC(=O)CCCS(=O)(=O)c2nc(-c3cccs3)cc(C(F)(F)F)n2)no1, the Potency is reported as inconclusive: 31.6 µM [cytotoxic, single point]. With CC(NC(=O)C1CC=CCC1C(=O)O)C1CC2CCC1C2 (stereo not given) the Potency was “inactive”. For Cc1ccc(CN2CCC(CNC(=O)Nc3ccc(C)c(C)c3)C2)cc1 (stereo not given), the Potency was inconclusive: 20 µM [cytotoxic, partial curve]. In the case of COc1ccc(C)cc1NC(=O)c1nnn(-c2c(C)cccc2C)c1C, the Potency is reported as “inactive”. With COc1cc2[nH]c3c(N4CCN(c5ccccn5)CC4)ncnc3c2cc1OC the Potency was inconclusive: 31.6 µM [cytotoxic, single point]. In the case of O=C(NCCO)c1nc(NCCO)c2ccccc2n1, the Potency is reported as “inactive”. For COc1ccccc1/C=C/c1nc(C#N)c(NCC(C)C)o1, the Potency was inconclusive: 25.1 µM [cytotoxic, partial curve]. With CCN(CC)CCOC(=O)c1ccc(NC(=O)c2cc3c(s2)-c2ccccc2OC3)cc1 the Potency was active: 15.8 µM. With Clc1cccc(C2=NC(c3cccs3)=Nc3ccc(Br)cc3N2)c1 the Potency was inconclusive: 31.6 µM [cytotoxic, single point]. With CCN(CC)CCOC(=O)c1ccc(Nc2c3c(nc4ccccc24)CCC3)cc1 the Potency was “inactive”. With COc1cc(-c2nc3nc(C)cc(C)n3c2Nc2ccc(Cl)cc2)ccc1O the Potency was inconclusive: 7.94 µM [cytotoxic, partial curve]. In the case of CCOC(=O)C1CCCN(c2cc(C)nc3cc(-c4ccc(F)cc4)nn23)C1 (stereo not given), the Potency is reported as inconclusive: 20 µM [cytotoxic, partial curve]. With Cc1cc(O)c(C=O)c2c1C(=O)Oc1c(COC(=O)/C=C/C(=O)O)c(O)c(C(=O)O)c(C)c1O2 the Potency was “inactive”. In the case of COc1cccc(/C=C/C(=O)Nc2ccc3nc(N4CCN(C)CC4)cc(C)c3c2)c1OC, the Potency is reported as active: 12.6 µM. In the case of CCc1ccccc1N1CC(c2nc3ccccc3n2CCCCOc2ccccc2)CC1=O (stereo not given), the Potency is reported as inconclusive: 31.6 µM [cytotoxic, single point]. In the case of CCN(CC)CCNC(=O)c1ccc2c(=O)n3nc(Nc4ccccc4OC)sc3nc2c1, the Potency is reported as inconclusive: 25.1 µM [cytotoxic, single point]. With CCOc1ccc(-c2nc(CSCC(=O)NCc3ccc(Cl)cc3)c(C)o2)cc1 the Potency was inconclusive: 7.94 µM [cytotoxic, partial curve]. In the case of O=S1(=O)c2ccccc2N(Cc2cccc(Cl)c2)c2ccccc21, the Potency is reported as “inactive”. In the case of CCCCCCCCCCCCCCCC(=O)NCCc1ccc(O)c(O)c1, the Potency is reported as “inactive”. For CC(=O)c1cc2c(cc1N/C(=N/S(=O)(=O)c1ccc(C)cc1)c1ccc(F)cc1)OCO2, the Potency was inconclusive: 12.6 µM [cytotoxic, single point]. With COc1cc(NC(=O)CSc2ncccc2C(=O)OC(C)C)cc(OC)c1 the Potency was inconclusive: 0.199 µM [cytotoxic, full curve]. In the case of CCN1C(C(=O)c2ccccc2)=C(OC(=O)c2ccccc2OC)c2ccccc2S1(=O)=O, the Potency is reported as active: 10 µM. In the case of Cc1cccc(-n2ncc3c(NC4CCCCC4)ncnc32)c1, the Potency is reported as active: 15.8 µM. For CCc1cc2c(cc3c(=O)n(CC(=O)NC4CCC(C)CC4)ncn32)s1 (stereo not given), the Potency was inconclusive: 31.6 µM [cytotoxic, single point]. For COc1cc2nc(NCc3ccc(C)cc3)n3nc(-c4ccccc4)nc3c2cc1OC, the Potency was “inactive”. For COc1ccc(NC(=O)c2cc(-c3ccc(C)o3)nc3ccccc23)cc1OC, the Potency was inconclusive: 12.6 µM [cytotoxic, single point]. With COc1ccc(Nc2nc(N)c3cc(OC)c(OC)cc3n2)cc1 the Potency was active: 12.6 µM. With COc1ccc(-c2nnc(NC(=O)c3cc(C)on3)s2)cc1 the Potency was inconclusive: 15.8 µM [cytotoxic, single point]. With COc1cccc(CNC(=O)c2nn(-c3ccc(C)cc3)c(=O)c3c2c2ccccc2n3C)c1 the Potency was inconclusive: 12.6 µM [cytotoxic, single point]. With O=C(Nc1cc(C(F)(F)F)ccc1Cl)c1cc(-c2ccc3c(c2)OCCO3)on1 the Potency was inconclusive: 7.94 µM [cytotoxic, partial curve, poor fit]. For CN(C)c1ccc(-c2ccc3ncnc(N(C)C)c3c2)cc1, the Potency was inconclusive: 15.8 µM [cytotoxic, single point]. For CC(=O)c1ccc(NC(=O)COc2ccccc2-c2nc(-c3cccc(C)c3)no2)cc1, the Potency was “inactive”. With COCCCNC(=O)c1ccc2c(c1)N(Cc1ccccc1)C(=O)c1ccccc1S2 the Potency was inconclusive: 0.0063 µM [cytotoxic, full curve, poor fit]. For COc1ccc(-c2nn3c(-c4ccccc4C)nnc3c3ccccc23)cc1, the Potency was active: 10 µM. For O=c1cc(-c2ccccc2)nc2nc(-c3ccccc3)[nH]n12, the Potency was inconclusive: 31.6 µM [cytotoxic, single point]. For COc1cc(/C=C(\C#N)c2nc3ccccc3[nH]2)ccc1OCc1cccc(C(F)(F)F)c1, the Potency was active: 3.16 µM. In the case of Cc1ccccc1Cn1c2ccccc2c2cnn(CC(=O)NCc3ccccn3)c(=O)c21, the Potency is reported as inconclusive: 31.6 µM [cytotoxic, single point]. For COC(=O)c1ccccc1NC(=O)c1cc2cc(C)ccc2n1C, the Potency was inconclusive: 0.126 µM [cytotoxic, partial curve]. With CCc1cccc(NC(=O)C2CCC(CNS(=O)(=O)c3ccc(Br)s3)CC2)c1 (stereo not given) the Potency was inconclusive: 7.94 µM [cytotoxic, partial curve]. For Cn1c(NCc2ccccc2Cl)nc2ccccc21, the Potency was inconclusive: 10 µM [cytotoxic, partial curve].
